The record followed here is paper PMC10726135.

The other results are listed elsewhere or left out. At the low end of the ranking, values are background and their order means little. The protein was read in a cell extract, so binding may be indirect.

For the test, the target named is T1, HNF4alpha8 (COS-7 nuclear extract) (UniProt P41235-5).
T1 sequence: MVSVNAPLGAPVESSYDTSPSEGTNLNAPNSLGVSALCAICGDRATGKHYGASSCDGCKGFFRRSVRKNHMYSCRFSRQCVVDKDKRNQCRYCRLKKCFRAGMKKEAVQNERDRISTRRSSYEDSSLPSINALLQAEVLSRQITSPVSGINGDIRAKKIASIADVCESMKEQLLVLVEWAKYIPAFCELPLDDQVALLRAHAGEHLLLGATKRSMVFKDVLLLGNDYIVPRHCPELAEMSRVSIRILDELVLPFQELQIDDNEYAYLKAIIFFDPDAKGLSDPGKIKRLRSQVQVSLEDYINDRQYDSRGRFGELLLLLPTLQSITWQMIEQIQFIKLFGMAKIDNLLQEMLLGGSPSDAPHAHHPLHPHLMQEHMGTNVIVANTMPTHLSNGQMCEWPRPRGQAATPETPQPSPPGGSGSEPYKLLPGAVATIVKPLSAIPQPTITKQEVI
The test can be described thus: protein-binding microarray. Particulars: COS-7 nuclear extract on double-stranded Agilent 4x180k PBM; binding buffer, salt, pH and temperature not given; high values mean tight binding; double strand, one strand shown; sequences stand for … in …GCCTAGGGAGATTAGAGTATCGGTCGA
On to AGAGAAGTTGATTGCACCCTTCCCTAAGAT, for which the binding signal (log2 normalized intensity) was determined as 0.522.

Regarding TGTGAACCCAGGCAAAGTCCAGAAATAGCA, the binding signal (log2 normalized intensity) was determined as 1.97.

Regarding AGATCTCAGTTGGTCCAAGGTACATGTCTC, the binding signal (log2 normalized intensity) worked out at 2.75. Take AAAGCCCTTTTTGGAATGTGTTTGCATGAC: the binding signal (log2 normalized intensity) came to 1.79. As to GAAGCCCAGCAGCTCCAGGAGACGTAGAGA, the binding signal (log2 normalized intensity) is -1.35. Take CTGACTAGGACAGAGCAGATGAAAGTAGTT: the binding signal (log2 normalized intensity) is -1.43. With CTCTGTGAAGTGGAGATAATAGGAGATAAT, the binding signal (log2 normalized intensity) was -0.251. As for CTGCACTTTTGTGCTCTGTACCCGGCTGCC, the binding signal (log2 normalized intensity) is 1.32. To GAATTTCATTTTGCTCTTTGTTCAGATACA belongs 2.4; to GGGCTGGGGGCAGGGCTGGTCGGATGGCCG, -1.25; to CCCACAATCAGTCTGATTGGTTGCAGAAGG, 1.06. To GGGCAATGACCTGGACAGGTCCAAGGTTCT belongs 2.45; to AGAGACTAGTATGTAAATAAGAGCTTTGCA, -1.13; to AGAAATTGCGCTAACCAGATGGTAGATGGG, -0.943. With AGCAGCTTGAGGCTCCGATAAACCCAGGCA, the binding signal (log2 normalized intensity) is -1.38. On to GCTTTTGCACTTTACTCAGAAAGGTCAGCG, for which the binding signal (log2 normalized intensity) came out at 3.54.

In the case of ACCTTTGCTCACGTTTTCCTGCTGACCCTC, the binding signal (log2 normalized intensity) was found to be 3.93. Under AATGTTTCAAAGTTTTTCCCCTTGGTGGAT stands 2.11; under GCCGTTGGACCAAGCTCTAGCATCCCTCTC, -1.44; under GACATGATCAAAGTTCATTGTAGCCTCAAA, 3.81.

As for GTAGGGCCAATCTCTGGCATGTATTTATCA, the binding signal (log2 normalized intensity) was 0.383. In the case of ATTTGATAAGATGTGTAAAACACAAATCTC, the binding signal (log2 normalized intensity) is -1.13. Regarding CACAAAGGTGCAAAGTACATATTTACTTAC, the binding signal (log2 normalized intensity) was 4.08. Under AAAGAGATTGGACTTTGGCCTGTGAATCCA stands 9.05; under GTCCCAAGCATCTCTGAGCAGTGAATGTTG, -0.929.

With ATTTTTATCTGTTTATTTTGCAATTAACAA, the binding signal (log2 normalized intensity) was -1.14. To TTCACACCATGCTCTAGTCTTCCTGTCTCC belongs -1.18; to CCATTATCTCCTTAGGTACTTTTCTGTTTG, 1.84; to TAAGGGTGTTTGTCCTTTGTTGCAATGCTG, 0.969.

For AAGATTGTTGAATACTTGGAGACAGTGAGA, the binding signal (log2 normalized intensity) stood at 0.311.

For CAGTATTTGGTGAGGCCCCAGTGTCAATTC, the binding signal (log2 normalized intensity) was 1.72.

Consider TTATCTAGACAAATTTGTTTACTTCTGTCT, for which the binding signal (log2 normalized intensity) was 1.23. CTCAGATGCCAGCTAAGATCAGTAGCTAGG: the binding signal (log2 normalized intensity) is -1.26. Turning to CCCCAATACACACACACCCCTCCACTGGAC, the binding signal (log2 normalized intensity) was 3.78.

For the sequence AAAACATATTTGCATAATGGAGCAAAGGTC, the binding signal (log2 normalized intensity) amounted to 6.3.

Regarding CCTCGGTGGAGTTGACACAGACCTGCCTCT, the binding signal (log2 normalized intensity) is -1.29. To TCCTGTTCAACTATTCCTCGACCTTCGGCT belongs 3.34. AATATAGGCCAGGCATACCTTTCTTATCAT: the binding signal (log2 normalized intensity) is -1.22. With TCTTATCTAGGTAAGTATAGTGGGAGGAGA, the binding signal (log2 normalized intensity) came to 0.442.

Regarding GGCTGCGACCTGCTGGGCTGCATTCCCAGA, the binding signal (log2 normalized intensity) was -1.33. Regarding AGCAGTCCCTTCCCCCCTCCTCATTGAGAG, the binding signal (log2 normalized intensity) was found to be 4.38. To CAGAGATCAAAAACCAAAGCTGGAGTGCAG belongs -0.858; to CCAAGGTGCTAGCTCCGACTCAGTGGGGGG, -1.4; to GTGGCCTGTGCCTGTAGTCCCAGCGACTTG, -1.21. To CACATTGTAGCTAAAATGTTAATGATTACT belongs -0.906. On to CAGCGGCCGGAAAAAGTGAGGAGCAGCAGA, for which the binding signal (log2 normalized intensity) is -1.22. For CGGACGGGCTGCGGAGGCGACTGCAGATTG, the binding signal (log2 normalized intensity) was -1.3. Consider TTCCATTAACTGAACCTAGATTCCAGGAAG, for which the binding signal (log2 normalized intensity) came out at 0.602.

Regarding TTCAGCAAATACTAATTCTCCCCCACCTGT, the binding signal (log2 normalized intensity) worked out at 4.57. Turning to TTCTCCGGGTTCTGCGCAGGGAGGAGCGCA, the binding signal (log2 normalized intensity) is -1.21. Turning to GTGCAAGGGAATGTAAGGCACTTTATCTAG, the binding signal (log2 normalized intensity) is -0.923.

Take ACTGGAATAAAGCAGTCCCTACTTCAAAGG: the binding signal (log2 normalized intensity) is -1.2. CTGGGATCCAAAGTTCATGGAAAGTTTCAC: the binding signal (log2 normalized intensity) stood at 3.14. Regarding TACAAATTCCAAGGACTGAGATAAGAGAAG, the binding signal (log2 normalized intensity) was -1.31. For the sequence CTCCCTCTGAAGGGAGGGCCAAGCCCTCCA, the binding signal (log2 normalized intensity) was -1.32. Under AGTGCAAAGGAGTCTGATTGTTGTGTGCCC stands 1.81. Take TGGCCATTTGGGAAACCGCGATTAAAAATG: the binding signal (log2 normalized intensity) is -1.29. Consider TTGAGGAGAGTCAAAGGTTAATGAGCCCCC, for which the binding signal (log2 normalized intensity) came out at 5.04. Turning to CCCCCTGCTCCAGGCCGGCTTGCGTCCCCA, the binding signal (log2 normalized intensity) turned out to be 3.17.

On to AGCCTACCCACCCACACCTCCCCTTTGTTT, for which the binding signal (log2 normalized intensity) is 3.22. Consider CTTTCTGCATCGCAGTCGCCTGCAAGACAA, for which the binding signal (log2 normalized intensity) is -1.24.

With AAACTTTAGTAGTCCAAAGCTCAGATTGCC, the binding signal (log2 normalized intensity) came to 1.79. To GGATAGAATCAAAGGTCAGGAATCGCATTG belongs 3.66. In the case of GTGTCTCCGAGATAAGGCGTCTTATCAGCC, the binding signal (log2 normalized intensity) was -1.36. For GGTCTTTGCCCTTTCCTAGACGTAAGACAA, the binding signal (log2 normalized intensity) is 2.53. For the sequence TGGGTTCTTGCCCTTTGGTCTGGAACACAG, the binding signal (log2 normalized intensity) came out at 4.41. Take TATCTCACTTATTTGTCATAATGCTCTTAT: the binding signal (log2 normalized intensity) worked out at 1.56. As for ATAGCTACGGGTGACCTTGAGCACTAAAGA, the binding signal (log2 normalized intensity) was found to be 1.03.

In the case of ACTCCATCCTCACTTTAGGTGCTCTTGGCT, the binding signal (log2 normalized intensity) was -1.24. As to TGAAAGTTCTCTGGGCTTTTTGATCTTGTC, the binding signal (log2 normalized intensity) was 1.25. In the case of AAATCACAATTTTCAAGAACAAACAAATTT, the binding signal (log2 normalized intensity) was -0.984.

Consider ACGCACGGCAGAGCACCTGGATAAGCCAGA, for which the binding signal (log2 normalized intensity) is -1.42.
